# In all, about 81,000 sequences were measured (“one-hybrid fitness for binding NBS DNA”: median about -0.1, highest 2% from about 0.36 on). The list shows a part of the results.
# B1: Caulobacter ParB omega fusion; a variant is named by its letters at X, in order, B8GW30 (parent)
# chain: MESVVVGEPGMSEGRRGLGRGLSALLGEVDAAPAQAPGEQLGGSREAPIEILQRNPDQPRRTFREEDLEDLSNSIREKGVLQPILVRPSPDTAGEYQIVAGERAWRAAQRAGLKTVPIMVRELDDLAVLEIGIIENVQRADLNVLEEALSYKVLMEKFERTQENIAQTIGKSXSHVANXMRLLXLPDEVQSYLVSGELTAXHARAIAAAADPVALAKQIIEGGLSVRETEALARKAPNLSAGKSKGGRPPRVKDTDTQALESDLSSVLGLDVSIDHRGSTGTLTITYATLEQLDDLCNRLTRGI
# Variants of: B1
# Experiment: one-hybrid fitness for binding NBS DNA (the Noc-binding site; scaled: cognate 1, non-cognate 0); higher = stronger binding
# Conditions: with NBS DNA site
# Outline: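 Caulobacter ParB libraries with four specificity codons randomised were screened by bacterial one-hybrid selection in the E. coli USO strain, using a HIS3 reporter whose site lies 19 bp from the promoter. Selection ran for 48 hours at 37°C on M9 lacking histidine, with 0.1 mM IPTG and 5 mM 3-AT. Plasmids were Illumina-sequenced before and after selection, three replicate libraries were pooled, and variants with under 10 reads were dropped. Fitness is the log change in each variant's read ratio to wild type, rescaled against the cognate and non-cognate sites.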
row,Variant,one-hybrid fitness for binding NBS DNA
1,LMFY,≤ 0.2
2,YSTS,≤ 0.2
3,DSTR,≤ 0.2
4,LIAR,≤ 0.2
5,QPPH,≤ 0.2
6,YCET,≤ 0.2
7,LGWS,≤ 0.2
8,RNGD,≤ 0.2
9,MSCY,≤ 0.2
10,HMTT,≤ 0.2
11,WHKF,≤ 0.2
12,RYMK,≤ 0.2
13,IYMI,≤ 0.2
14,MATQ,≤ 0.2
15,NPVQ,≤ 0.2
16,QVLD,≤ 0.2
17,PVPG,≤ 0.2
18,AHAS,≤ 0.2
19,FLSG,≤ 0.2
20,VCCY,≤ 0.2
21,RALE,≤ 0.2
22,GCTA,≤ 0.2
23,FTEL,≤ 0.2
24,SANG,≤ 0.2
25,AAKY,≤ 0.2
26,FMIV,≤ 0.2

row,Variant,one-hybrid fitness for binding NBS DNA
1,ATWP,≤ 0.2
2,PKPG,≤ 0.2
3,MSGV,≤ 0.2
4,PWRL,≤ 0.2
5,GPQV,≤ 0.2
6,VCSR,≤ 0.2
7,KAQR,≤ 0.2
8,SSWP,≤ 0.2
9,GMNR,≤ 0.2
10,KDRS,≤ 0.2
11,RPLA,≤ 0.2
12,CVMT,≤ 0.2
13,CKRR,≤ 0.2
14,PTFR,≤ 0.2
15,GSAN,≤ 0.2
16,AMSD,≤ 0.2
17,SGLP,≤ 0.2
18,KCAN,≤ 0.2
19,PVFE,≤ 0.2
20,QMGS,0.42
21,GYSG,≤ 0.2
22,GEPE,≤ 0.2
23,QHRN,0.334
24,TVTP,≤ 0.2
25,QIKN,0.223
26,SMMR,≤ 0.2

row,Variant,one-hybrid fitness for binding NBS DNA
1,NGMR,≤ 0.2
2,KLCA,≤ 0.2
3,ACHM,≤ 0.2
4,YMHY,≤ 0.2
5,NTIE,≤ 0.2
6,MRYM,≤ 0.2
7,TMSV,≤ 0.2
8,PHVI,≤ 0.2
9,NEMG,≤ 0.2
10,YQTS,≤ 0.2
11,SFHM,≤ 0.2
12,FSYE,≤ 0.2
13,SHWV,≤ 0.2
14,SNNF,≤ 0.2
15,THVR,≤ 0.2
16,YVRG,≤ 0.2
17,RMDY,≤ 0.2
18,RMEF,≤ 0.2
19,LVNV,≤ 0.2
20,STSC,≤ 0.2
21,QSDH,≤ 0.2
22,TQGL,≤ 0.2
23,SYGA,≤ 0.2
24,RNTP,≤ 0.2
25,KNTG,≤ 0.2
26,HGLG,≤ 0.2

row,Variant,one-hybrid fitness for binding NBS DNA
1,CTEG,≤ 0.2
2,RYPT,≤ 0.2
3,VSSF,≤ 0.2
4,TLVL,≤ 0.2
5,KHPD,≤ 0.2
6,RLAQ,≤ 0.2
7,RGDI,≤ 0.2
8,QLMD,≤ 0.2
9,TQRM,≤ 0.2
10,RIYL,≤ 0.2
11,RCCY,≤ 0.2
12,DECN,≤ 0.2
13,YMHF,≤ 0.2
14,VPTA,≤ 0.2
15,YISK,≤ 0.2
16,QHIR,0.352
17,FSKD,≤ 0.2
18,RGCA,≤ 0.2
19,SFSN,≤ 0.2
20,TQSF,≤ 0.2
21,DLRE,≤ 0.2
22,EKWT,≤ 0.2
23,STWR,≤ 0.2
24,LDPY,≤ 0.2
25,YHCD,≤ 0.2
26,QMWT,0.36

row,Variant,one-hybrid fitness for binding NBS DNA
1,AYTT,≤ 0.2
2,DTTN,≤ 0.2
3,SQIT,≤ 0.2
4,CRHT,0.202
5,TSCC,≤ 0.2
6,SAYR,≤ 0.2
7,TLRI,≤ 0.2
8,QRMY,0.463
9,RAKC,0.335
10,YQPG,≤ 0.2
11,QKMH,≤ 0.2
12,VWGW,≤ 0.2
13,RNQG,≤ 0.2
14,LSPP,≤ 0.2
15,MNDF,≤ 0.2
16,ACTF,≤ 0.2
17,QGLY,≤ 0.2
18,YGGL,≤ 0.2
19,NVAA,≤ 0.2
20,DLFA,≤ 0.2
21,KQSM,≤ 0.2
22,ENAS,≤ 0.2
23,TDKE,≤ 0.2
24,CTTM,≤ 0.2
25,TQET,≤ 0.2
26,QFAF,≤ 0.2

row,Variant,one-hybrid fitness for binding NBS DNA
1,GHSF,≤ 0.2
2,IEYT,≤ 0.2
3,IMVC,≤ 0.2
4,YEHV,≤ 0.2
5,QYSI,≤ 0.2
6,FLEV,≤ 0.2
7,RDTV,≤ 0.2
8,FSPS,≤ 0.2
9,VHTG,≤ 0.2
10,NLQC,≤ 0.2
11,TRVF,≤ 0.2
12,RCLL,≤ 0.2
13,NHET,≤ 0.2
14,PRDL,≤ 0.2
15,ISQW,≤ 0.2
16,RNMS,≤ 0.2
17,LYKG,≤ 0.2
18,QFAK,≤ 0.2
19,PNEP,≤ 0.2
20,RGKR,0.38
21,RSSQ,≤ 0.2
22,PPDC,≤ 0.2
23,ASVW,≤ 0.2
